# Reference: paper PMC4336329 (PLoS ONE, 2015)
# The whole screen tested about 310,000 compounds, of which about 14,000 (4.5%) showed an effect of 50% or more. The effect is printed as a negative number. This is one part of the list.
# Molecular target: human ether-à-go-go-related gene (hERG) potassium channel (human, UniProt Q12809)
# Assay: primary screen, population patch clamp on CHO cells stably expressing hERG
# 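Further: peak tail current of the secondary pulse compared with the same well before compound.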
# human ether-à-go-go-related gene (hERG) potassium channel, sequence (Q12809 whole entry, looked up): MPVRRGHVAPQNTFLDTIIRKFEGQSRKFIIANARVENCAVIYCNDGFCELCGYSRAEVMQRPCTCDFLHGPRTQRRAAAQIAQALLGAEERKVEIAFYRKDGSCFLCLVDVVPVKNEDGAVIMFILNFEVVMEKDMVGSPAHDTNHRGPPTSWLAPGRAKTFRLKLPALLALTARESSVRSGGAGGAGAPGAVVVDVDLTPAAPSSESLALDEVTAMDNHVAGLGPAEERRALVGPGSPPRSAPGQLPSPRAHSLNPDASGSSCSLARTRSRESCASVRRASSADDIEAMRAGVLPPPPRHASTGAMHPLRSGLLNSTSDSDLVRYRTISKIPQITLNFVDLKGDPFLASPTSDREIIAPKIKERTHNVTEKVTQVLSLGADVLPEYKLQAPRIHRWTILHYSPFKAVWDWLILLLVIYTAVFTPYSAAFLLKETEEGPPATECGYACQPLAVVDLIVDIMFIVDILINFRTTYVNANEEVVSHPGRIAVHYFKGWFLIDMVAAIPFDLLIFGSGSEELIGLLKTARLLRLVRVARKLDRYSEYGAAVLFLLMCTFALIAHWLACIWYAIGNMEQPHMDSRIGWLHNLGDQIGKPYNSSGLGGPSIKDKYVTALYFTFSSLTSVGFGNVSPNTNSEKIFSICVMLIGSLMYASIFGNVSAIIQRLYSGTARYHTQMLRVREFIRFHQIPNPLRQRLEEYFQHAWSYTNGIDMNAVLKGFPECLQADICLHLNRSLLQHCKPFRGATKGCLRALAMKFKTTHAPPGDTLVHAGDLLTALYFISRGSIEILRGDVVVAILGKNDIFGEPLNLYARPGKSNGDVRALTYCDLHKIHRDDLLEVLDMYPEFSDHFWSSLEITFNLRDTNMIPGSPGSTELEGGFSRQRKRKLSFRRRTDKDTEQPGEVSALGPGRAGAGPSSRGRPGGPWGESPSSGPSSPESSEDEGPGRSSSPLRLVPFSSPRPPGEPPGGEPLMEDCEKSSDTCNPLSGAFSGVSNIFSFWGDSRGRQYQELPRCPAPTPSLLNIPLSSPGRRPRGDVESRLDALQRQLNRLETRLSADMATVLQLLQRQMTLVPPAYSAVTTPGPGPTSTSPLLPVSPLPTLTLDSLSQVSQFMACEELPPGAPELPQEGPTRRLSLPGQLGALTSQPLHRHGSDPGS
row,Structure (SMILES),"hERG current change (%, negative = inhibition) at 10uM [%]"
1,O=C(CCS(=O)(=O)c1ccccc1)Nc1cccc2c1C(=O)NC2=O,6.51
2,CCn1c(SCC(=O)NC2CC2)nnc1C(C)Oc1ccccc1 (stereo not shown),14.6
3,O=C(CSc1ccccn1)NCc1ccc2c(c1)OCO2,3.5
4,CC(=O)c1ccc(NC(=O)c2noc(C)c2[N+](=O)[O-])cc1,10.2
5,Cc1onc(-c2c(Cl)cccc2Cl)c1C(=O)N1CCN(c2ccccc2)CC1,-4.8
6,COC(=O)c1ccc(NC(=O)CSc2nc3cccnc3n2C)cc1,20.4
7,COc1cc2nc(N(CCN(C)C)C(=O)c3ccc(S(=O)(=O)N(C)CC4CCCO4)cc3)sc2cc1OC.Cl (stereo not shown),-9.01
8,O=C(COc1cccc2ccccc12)N1c2ccccc2CCc2ccccc21,-4.67
9,COc1ccc(NS(=O)(=O)c2nnc(NC(=O)c3ccccc3F)s2)cc1,5.61
10,O=C(O)c1ccc(N2CCCCCC2)c(N2C(=O)c3ccccc3C2=O)c1,2.37
11,COc1ccc(NC(=O)NNC(=O)COc2ccc3cc(Br)ccc3c2)cc1,20.6
12,CC(C)C(=O)NCc1cc(-c2ccc(Cl)cc2)no1,-4.69
13,Cc1ccc(CCNC(=O)C2CCN(S(=O)(=O)c3ccc4c(c3)NC(=O)CO4)CC2)cc1,-1.82
14,COC(=O)C1=C(C)N(Cc2ccco2)C(=O)N[C@H]1c1ccc(Br)cc1,4.35
15,Clc1ccc(Cl)c(-c2nn3c(COc4ccccc4)nnc3s2)c1,3.08
16,CC1CCC2C(=O)N(c3ccc(NC4CCN(Cc5ccccc5)CC4)c([N+](=O)[O-])c3)C(=O)C2C1 (stereo not shown),-41.2
17,CCOc1ccc(S(=O)(=O)N2CCCC(C(=O)N3CCN(c4ccccc4)CC3)C2)cc1 (stereo not shown),-56.3
18,CC(=O)c1cccc(NC(=O)N2CCC(c3nnc(SCC(N)=O)n3C)CC2)c1,11.4
19,Cc1onc(-c2ccccc2)c1CNS(=O)(=O)c1ccc(F)cc1F,-4.91
20,O=C(NCCOCCNC(=O)OCc1ccccc1)OCc1ccccc1,-24.9
21,CCCOc1ccc(C(=O)c2ccccc2C(=O)O)cc1OCCC,14.4
22,CCOC(=O)c1ccc(-n2c(C)nc3c(cnn3-c3ccc(Cl)cc3)c2=O)cc1,-15.5

row,Structure (SMILES),"hERG current change (%, negative = inhibition) at 10uM [%]"
1,COCCNC(=O)NC12CC3(C)CC(C)(CC(C)(C3)C1)C2,-14.4
2,Brc1ccc(-c2cn3c(n2)CCc2ccc4cccnc4c2-3)cc1,12.5
3,O=C(NCCNCc1cccs1)c1ccccc1F,10.4
4,OCCC1CN(Cc2ccc(-c3ccco3)cc2)CCN1Cc1ccsc1 (stereo not shown),-53.8
5,COc1ccc(C(=O)O)cc1S(=O)(=O)N(CCc1ccccc1)Cc1ccccc1,21.2
6,CCOC(=O)C1=C(COC(=O)c2cccc(Br)c2)NC(=O)NC1C (stereo not shown),-1.37
7,COc1ccc(NC(=O)COc2ccc(S(=O)(=O)N3CCOCC3)cc2C)cc1OC,17.6
8,O=C(Nc1ccccc1N1CCN(C(=O)c2ccccc2)CC1)c1ccc2c(c1)OCO2,-60.7
9,CCN(CC(=O)Nc1ccc(NC(C)=O)cc1)C(=O)/C=C/c1ccc(C)o1,-5.71
10,CN1/C(=C/C=N/n2cnnc2)C(C)(C)c2ccccc21,-1.92
11,COc1ccc(CCNC(=O)Cc2cc(OC)c(OC)cc2Br)cc1OC,9.45
12,COC(=O)c1cccc(-n2c(CCC(=O)O)ccc2-c2cccs2)c1,7.21
13,O=C1NCCCC1C(=O)N/N=C/c1ccc(Cl)cc1 (stereo not shown),-9.96
14,Cc1ccc(C(C(=O)NCCc2ccccc2)N(C(=O)c2csnn2)C2CC2)o1 (stereo not shown),-43.8
15,COC(=O)c1c(NC(=O)CSc2ncn[nH]2)sc(C)c1C,3.23
16,CC(/C=C1\SC(=S)N(NC(=O)c2ccncc2)C1=O)=C\c1ccccc1,26.1
17,Nc1[nH]ncc1S(=O)(=O)c1ccccc1,11.4
18,COc1ccccc1CCC(=O)N(C)CC(=O)Nc1ccc(Cl)c(C(F)(F)F)c1,4.03
19,O=[N+]([O-])c1ccc(Oc2ccc(F)cc2)c2ccncc12,-37.4
20,O=C(CCc1ccccc1)NNC(=O)c1ccccc1Cl,17.5
21,Nc1nc2c(nc(Br)n2[C@@H]2O[C@@H]3COP(=O)([O-])O[C@H]3[C@H]2O)c(=O)[nH]1.[Na+],2.3
